The inconclusive results got no clear call from the source; some entries with a clear call stand among them for comparison. For part of these data: Potencies of inconclusive entries are left out as doubtful fits. The source holds several records for some structures; these can differ, active in one and inactive in another. Activity calls are given as the source filed them. Unless noted, calls follow the shape of the dose curve; as a rule, active = well fitted curve in the direction sought with a large enough effect in the repeat runs; inconclusive = weak or mixed curves; inactive = no such curve, though single readings can be large; an effect the other way counts as inactive or inconclusive.
How the values were obtained:
[1] = biological target: Estrogen receptor (Homo sapiens) (UniProt P03372); assay: qHTS assay to identify small molecule antagonists of the estrogen receptor alpha (ER-alpha) signaling pathway (AID 743069; active = well fitted curve in the direction sought with a large enough effect in the signal ratio in the repeat runs, not every such curve was filed as active; inconclusive = weak or mixed curves, or effect the other way; inactive = no such curve, though single readings can be large or run the other way; the % refers to the signal ratio; also: potency is read from the fitted curve at half-maximal effect); settings: HEK293 ER-alpha-UAS-bla, beta-lactamase ratio, antagonist mode; activity, negative = inhibition: at 69.4 µM (top of the series) unless noted
Sequence of UniProt P03372 (P03372 whole entry, looked up): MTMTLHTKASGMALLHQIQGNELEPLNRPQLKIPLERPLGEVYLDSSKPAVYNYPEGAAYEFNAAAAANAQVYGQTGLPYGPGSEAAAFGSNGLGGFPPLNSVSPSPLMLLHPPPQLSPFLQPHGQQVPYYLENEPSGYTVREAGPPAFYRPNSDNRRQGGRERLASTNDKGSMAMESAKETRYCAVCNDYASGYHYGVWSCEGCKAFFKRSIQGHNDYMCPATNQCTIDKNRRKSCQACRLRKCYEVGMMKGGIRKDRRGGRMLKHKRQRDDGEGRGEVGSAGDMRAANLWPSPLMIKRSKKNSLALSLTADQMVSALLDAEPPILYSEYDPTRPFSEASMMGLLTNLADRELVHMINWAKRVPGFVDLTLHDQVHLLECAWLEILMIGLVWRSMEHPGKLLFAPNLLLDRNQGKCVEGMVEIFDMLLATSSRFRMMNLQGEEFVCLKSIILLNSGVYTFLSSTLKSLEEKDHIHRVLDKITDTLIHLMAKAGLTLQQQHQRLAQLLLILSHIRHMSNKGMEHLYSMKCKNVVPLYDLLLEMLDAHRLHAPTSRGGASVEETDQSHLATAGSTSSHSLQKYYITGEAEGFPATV
How it was run: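 A 17beta-estradiol challenge was applied right after compound transfer to ER-alpha-UAS-bla HEK293 cells previously kept in charcoal-stripped serum. Plates stood 18 hr at 37C and 5% CO2; fluorescence was read following 2 hr FRET substrate loading at room temperature.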

[2] = qHTS assay to identify small molecule antagonists of the estrogen receptor alpha (ER-alpha) signaling pathway using the BG1 cell line (AID 743080; calls by dose curve;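 also: BG1 cells stimulated with 17beta-estradiol alongside compound; nearly all actives have a fitted effect of over 25% in size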; also: potency is read from the fitted curve at half-maximal effect); settings: BG1Luc4E2 ERE-luciferase antagonist mode, luminescence; activity change, negative = inhibition: at 70.3 µM (top of the series) unless noted
How it was run: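 After 5 days in phenol-red-free 10% charcoal-stripped FBS medium, BG1-Luc-4E2 cells were seeded, left 24 h at 37 C, co-treated with compounds and 17beta-estradiol for 21.5 h, then assayed for viability and luciferase.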

[3] = biological target: Aryl hydrocarbon receptor (Homo sapiens) (UniProt P35869); assay: qHTS assay to identify small molecule that activate the aryl hydrocarbon receptor (AhR) signaling pathway (AID 743085); also: potency is read from the fitted curve at half-maximal effect; nearly all actives have a fitted effect of over 15% in size
Sequence of UniProt P35869 (P35869 whole entry, looked up): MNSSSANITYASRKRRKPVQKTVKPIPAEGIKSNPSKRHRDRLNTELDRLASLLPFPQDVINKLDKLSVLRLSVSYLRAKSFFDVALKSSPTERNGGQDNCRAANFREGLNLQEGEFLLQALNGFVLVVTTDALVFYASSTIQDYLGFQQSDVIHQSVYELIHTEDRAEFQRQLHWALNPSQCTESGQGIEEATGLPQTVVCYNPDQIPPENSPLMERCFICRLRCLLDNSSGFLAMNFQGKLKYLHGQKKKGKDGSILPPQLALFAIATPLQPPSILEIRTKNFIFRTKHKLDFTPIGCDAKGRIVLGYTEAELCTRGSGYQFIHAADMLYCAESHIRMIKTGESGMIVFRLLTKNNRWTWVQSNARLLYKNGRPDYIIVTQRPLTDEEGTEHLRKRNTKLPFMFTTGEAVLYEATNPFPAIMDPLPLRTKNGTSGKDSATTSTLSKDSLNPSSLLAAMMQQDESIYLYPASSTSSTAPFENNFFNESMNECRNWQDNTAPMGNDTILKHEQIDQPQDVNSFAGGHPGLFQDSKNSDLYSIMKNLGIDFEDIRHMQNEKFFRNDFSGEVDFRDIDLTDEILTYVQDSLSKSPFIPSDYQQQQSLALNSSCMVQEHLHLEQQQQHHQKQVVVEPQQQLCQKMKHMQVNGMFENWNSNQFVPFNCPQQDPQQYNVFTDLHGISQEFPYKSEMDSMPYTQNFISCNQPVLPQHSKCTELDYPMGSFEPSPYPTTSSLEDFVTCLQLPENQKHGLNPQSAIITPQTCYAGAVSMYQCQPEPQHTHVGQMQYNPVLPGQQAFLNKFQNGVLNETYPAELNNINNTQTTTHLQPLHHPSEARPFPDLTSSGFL
How it was run: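 Compounds were tested in HepG2 hepatocellular carcinoma cells harbouring a stably integrated luciferase gene under control of 20 DREs. Increased reporter signal after 24 h treatment at 37C was taken as AhR activation.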

[4] = qHTS assay to identify small molecule agonists of the peroxisome proliferator-activated receptor delta (PPARd) signaling pathway - cell viability counter screen (AID 743211); settings: PPARd-bla HEK293H viability, CellTiter-Glo luminescence, 17 h; activity change, negative = cytotoxicity: at 62.6 µM (top of the series); also: nearly all actives have a fitted effect of over 55% in size; also: potency is read from the fitted curve at half-maximal effect; as to activity change, negative = cytotoxicity: % is scaled to controls: 0 for no effect and ±100 for the full control effect
How it was run: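 Counter screen for cytotoxicity run in parallel with the PPARd reporter screen. Beta-lactamase reporter HEK293H cells exposed to compounds 17 h; ATP-based CellTiter-Glo luminescence quantified viability.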

[5] = qHTS assay to identify small molecule antagonists of the estrogen related receptor (ERR) signaling pathway from Tox21 library (AID 1224848); also: % is scaled to controls: 0 for no effect and ±100 for the full control effect; nearly all actives have a fitted effect of over 50% in size
How it was run: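 Tox21 10K compounds in DMSO tested for ERR pathway antagonism in NTP's ERR cell line; 18 h, 37 C exposure; ONE-Glo luminescence.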

[6] = biological target: Thyrotropin receptor (Homo sapiens) (UniProt P16473); assay: qHTS assay to identify small molecule antagonists of the thyroid stimulating hormone receptor (TSHR) signaling pathway (AID 1259385; calls by dose curve; also: nearly all actives have a fitted effect of over 20% in size; also: potency is read from the fitted curve at half-maximal effect); settings: TSHR-HEK293 cAMP HTRF, TSH-stimulated antagonist mode; activity change, negative = inhibition: at 92.4 µM (top of the series)
Sequence of UniProt P16473 (P16473 whole entry, looked up): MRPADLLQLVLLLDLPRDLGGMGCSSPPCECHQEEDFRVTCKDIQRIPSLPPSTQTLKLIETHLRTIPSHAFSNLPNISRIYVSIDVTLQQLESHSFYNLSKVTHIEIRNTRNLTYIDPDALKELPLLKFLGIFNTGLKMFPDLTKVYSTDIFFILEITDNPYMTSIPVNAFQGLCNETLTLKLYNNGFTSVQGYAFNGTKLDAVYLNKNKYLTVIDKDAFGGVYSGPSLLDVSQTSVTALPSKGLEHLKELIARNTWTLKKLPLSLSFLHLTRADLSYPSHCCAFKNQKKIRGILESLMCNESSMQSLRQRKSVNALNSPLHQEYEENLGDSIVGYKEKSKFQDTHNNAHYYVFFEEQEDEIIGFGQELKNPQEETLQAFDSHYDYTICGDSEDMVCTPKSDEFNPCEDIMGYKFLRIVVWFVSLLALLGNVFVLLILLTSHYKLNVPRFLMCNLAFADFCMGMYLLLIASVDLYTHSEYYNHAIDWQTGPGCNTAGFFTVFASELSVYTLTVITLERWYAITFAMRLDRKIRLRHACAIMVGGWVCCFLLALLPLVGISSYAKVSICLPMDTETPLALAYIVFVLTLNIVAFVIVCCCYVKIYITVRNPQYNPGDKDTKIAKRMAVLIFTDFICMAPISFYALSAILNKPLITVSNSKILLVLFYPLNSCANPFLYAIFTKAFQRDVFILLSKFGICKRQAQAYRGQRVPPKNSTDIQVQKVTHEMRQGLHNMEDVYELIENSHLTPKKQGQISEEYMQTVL
How it was run: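 TSHR-HEK293 cells were plated and held 18 h at 37C/5% CO2, then given compound plus Ro20-1724 and stimulated with TSH at 1.5 ng/mL final. After 30 min at room temperature, cAMP was detected with cAMP-d2/anti-cAMP-cryptate (1 h) by fluorescence.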

[7] = qHTS assay to identify aromatase inhibitors - cell viability counter screen (AID 743084); settings: MCF-7 aro ERE viability, CellTiter-Fluor, 24 h; activity change, negative = cytotoxicity: at 70.3 µM (top of the series);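 also: cells stimulated with testosterone during compound exposure; % is scaled to controls: 0 for no effect and ±100 for the full control effect; nearly all actives have a fitted effect of over 55% in size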
[8] = Caspase-3/7 induction in HepG2 cells by small molecules, qHTS cell viability counter screen (AID 1346981); also: % is scaled to controls: 0 for no effect and ±100 for the full control effect; nearly all actives have a fitted effect of over 30% in size
How it was run: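 Treatment of HepG2 cells with DMSO-delivered compounds ran 16 hr at 37 C following a 5-hr pre-incubation of 2,000 cells/well. CellTiter-Fluor fluorescence, read after 1 hr, served as the viability measure in a qHTS format.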

[9] = qHTS assay to identify small molecule antagonists of the androgen receptor (AR) signaling pathway - cell viability counter screen (AID 743033; also: % is scaled to controls: 0 for no effect and ±100 for the full control effect; nearly all actives have a fitted effect of over 45% in size)
[10] = biological target: Peroxisome proliferator-activated receptor delta (Homo sapiens) (UniProt Q03181); assay: qHTS assay to identify small molecule agonists of the peroxisome proliferator-activated receptor delta (PPARd) signaling pathway (AID 743212; calls by dose curve;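 also: HEK293H cells with PPARd UAS beta-lactamase reporter GeneBLAzer system; % is scaled to controls: 0 for no effect and ±100 for the full control effect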); settings: HEK293H PPARd-UAS-bla, beta-lactamase FRET ratio, 17 h; activation: at 62.6 µM (top of the series) unless noted
Sequence of UniProt Q03181 (Q03181 whole entry, looked up): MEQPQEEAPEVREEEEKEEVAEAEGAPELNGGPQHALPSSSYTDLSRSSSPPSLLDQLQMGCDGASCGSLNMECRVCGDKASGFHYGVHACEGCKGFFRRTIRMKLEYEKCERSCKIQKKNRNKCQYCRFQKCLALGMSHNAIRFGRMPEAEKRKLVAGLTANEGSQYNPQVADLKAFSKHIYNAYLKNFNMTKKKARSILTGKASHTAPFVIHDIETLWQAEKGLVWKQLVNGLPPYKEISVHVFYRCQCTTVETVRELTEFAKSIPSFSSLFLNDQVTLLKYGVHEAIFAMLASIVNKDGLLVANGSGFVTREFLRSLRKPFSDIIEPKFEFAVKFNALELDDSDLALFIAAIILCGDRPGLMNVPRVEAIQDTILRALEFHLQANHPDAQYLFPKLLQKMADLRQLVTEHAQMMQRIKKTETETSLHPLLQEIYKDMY
How it was run: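 Beta-lactamase reporter read by fluorescence (LiveBLAzer B/G FRET, 2 h, room temperature). Test agents, in DMSO, incubated at 37 C with PPARd-bla HEK293H cells.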

[11] = biological target: Vitamin D3 receptor (Homo sapiens) (UniProt P11473); assay: qHTS assay to identify small molecule agonists of the vitamin D receptor (VDR) signaling pathway (AID 743222; calls by dose curve; also: % is scaled to controls: 0 for no effect and ±100 for the full control effect); settings: HEK293T VDR-UAS-bla, beta-lactamase FRET ratio, 16 h; activation: at 63.5 µM (top of the series) unless noted
Sequence of UniProt P11473 (P11473 whole entry, looked up): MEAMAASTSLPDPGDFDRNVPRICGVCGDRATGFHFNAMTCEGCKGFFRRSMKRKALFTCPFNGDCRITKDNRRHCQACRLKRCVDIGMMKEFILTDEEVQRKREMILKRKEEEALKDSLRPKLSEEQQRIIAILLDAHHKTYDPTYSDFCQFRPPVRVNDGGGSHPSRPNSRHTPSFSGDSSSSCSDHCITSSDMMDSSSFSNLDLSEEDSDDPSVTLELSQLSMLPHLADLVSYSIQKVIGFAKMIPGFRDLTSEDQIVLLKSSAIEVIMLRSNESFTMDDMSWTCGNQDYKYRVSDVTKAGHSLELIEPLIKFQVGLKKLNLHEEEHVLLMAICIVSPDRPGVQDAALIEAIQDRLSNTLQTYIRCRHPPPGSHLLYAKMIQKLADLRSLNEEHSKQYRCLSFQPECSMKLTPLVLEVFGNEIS
How it was run: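 Using LiveBLAzer B/G FRET detection, agonism was scored in VDR-bla cells exposed overnight (16 h, 37C) to DMSO-dissolved compounds; substrate incubation was 2 h at room temperature.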

[12] = qHTS assay to identify small molecule antagonists of the sonic hedgehog signaling (Shh) pathway - cell viability counter screen (AID 1259367); also: potency is read from the fitted curve at half-maximal effect; nearly all actives have a fitted effect of over 55% in size
How it was run: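 Conditioned medium drove Shh signaling in 3T3 Gli1-Luc cells exposed to compounds at 37C and 5% CO2. Viability was determined from CellTiter-Fluor fluorescence, with reagent incubated 1 hr after 23 hr of treatment.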

[13] = Human pregnane X receptor (PXR) small molecule agonists, qHTS cell viability counter screen (AID 1346977); also: potency is read from the fitted curve at half-maximal effect; nearly all actives have a fitted effect of over 50% in size
How it was run: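 Cytotoxicity counter screen run in the same wells as the PXR luciferase assay, using PXR-Luc HepG2 cells in charcoal-stripped serum medium. Viability: CellTiter-Fluor fluorescence after 24hr compound treatment.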

[14] = biological target: Androgen receptor (Homo sapiens) (UniProt P10275); assay: qHTS assay to identify small molecule antagonists of the androgen receptor (AR) signaling pathway (AID 743035; active = well fitted inhibition curve with a large enough effect in the signal ratio in the repeat runs, not every such curve was filed as active; inconclusive = weak or mixed curves, or effect the other way; inactive = no such curve, though single readings can be large or run the other way; the % refers to the signal ratio; also: % is scaled to controls: 0 for no effect and ±100 for the full control effect); settings: HEK293 AR-UAS-bla, R1881-stimulated, beta-lactamase FRET, 16 h; activity change, negative = inhibition: at 58.5 µM (top of the series) unless noted
Sequence of UniProt P10275 (P10275 whole entry, looked up): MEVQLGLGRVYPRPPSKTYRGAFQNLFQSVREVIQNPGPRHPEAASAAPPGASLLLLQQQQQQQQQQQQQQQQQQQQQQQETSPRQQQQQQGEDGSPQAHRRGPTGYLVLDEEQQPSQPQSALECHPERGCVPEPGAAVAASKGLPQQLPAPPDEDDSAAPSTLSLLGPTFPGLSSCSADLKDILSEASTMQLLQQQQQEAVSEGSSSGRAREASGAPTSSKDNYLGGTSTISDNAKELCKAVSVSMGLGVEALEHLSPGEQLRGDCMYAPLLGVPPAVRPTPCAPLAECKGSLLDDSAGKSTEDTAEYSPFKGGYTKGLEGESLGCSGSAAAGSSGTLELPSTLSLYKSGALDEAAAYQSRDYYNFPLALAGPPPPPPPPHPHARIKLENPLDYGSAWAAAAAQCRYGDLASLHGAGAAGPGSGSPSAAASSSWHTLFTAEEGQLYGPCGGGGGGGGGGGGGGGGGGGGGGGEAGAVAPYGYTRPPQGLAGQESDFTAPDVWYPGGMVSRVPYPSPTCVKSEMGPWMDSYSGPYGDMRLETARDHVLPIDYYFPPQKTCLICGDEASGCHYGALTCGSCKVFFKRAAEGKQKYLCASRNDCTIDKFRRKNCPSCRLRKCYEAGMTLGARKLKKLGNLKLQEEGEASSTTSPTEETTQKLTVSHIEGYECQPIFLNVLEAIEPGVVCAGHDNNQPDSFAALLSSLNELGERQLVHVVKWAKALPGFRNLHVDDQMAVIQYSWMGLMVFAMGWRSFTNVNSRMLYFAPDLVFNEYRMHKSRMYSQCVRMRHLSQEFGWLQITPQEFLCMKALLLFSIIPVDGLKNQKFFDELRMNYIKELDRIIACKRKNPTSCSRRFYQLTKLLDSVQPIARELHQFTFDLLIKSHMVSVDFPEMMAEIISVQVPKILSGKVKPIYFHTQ
How it was run: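 R1881 agonist challenge of a HEK293 UAS-beta-lactamase AR reporter line in the presence of compound (16 h, 37C); signal taken as FRET fluorescence after 2 h with LiveBLAzer B/G substrate at room temperature.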

[15] = qHTS assay to identify small molecule antagonists of the estrogen related receptor signaling pathway with the pleiotropic PPARgamma coactivator (PGC) from Tox21 10K library (AID 1224841; call rule not given here; also: potency is read from the fitted curve at half-maximal effect; actives are mostly falling curves and most rising ones were filed inactive; nearly all actives have a fitted effect of over 50% in size)
How it was run: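 Test chemicals dissolved in DMSO were applied to pre-incubated (6 h) PGC/ERR cells at 2,000 cells/well for an 18 h, 37 C treatment; reporter luminescence was then read using One-Glo.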

[16] = A CellTox Green Cytotoxicity Assay to monitor cytotoxicity in HEK293 cells - 16 hour (AID 1224888); also: % is scaled to controls: 0 for no effect and ±100 for the full control effect; nearly all actives have a fitted effect of over 35% in size
How it was run: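 Tox21 screen in HEK293: membrane-impermeant cyanine dye fluoresces on binding dead-cell DNA; compound pinned 5 h post-seeding, plates held at 37 C, signal read repeatedly through 40 h.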

[17] = qHTS assay to identify small molecule agonists of the sonic hedgehog signaling (Shh) pathway - cell viability counter screen (AID 1259366); also: % is scaled to controls: 0 for no effect and ±100 for the full control effect; nearly all actives have a fitted effect of over 50% in size
How it was run: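 Cells are plated at 2,000 per well and left 4hr at 37C, 5% CO2 before compound addition. After 23hr of treatment, CellTiter-Fluor reagent is added for 1hr at 37C and fluorescence is measured.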
Tags tell the direction and shape of the fitted curve or compound fluorescence and quenching.

Cc1ncc2n1-c1ccc(Cl)cc1C(c1ccccc1F)=NC2
Potency [1]: inconclusive [rising, partial curve, poor fit]
Potency [2]: active: 11.9 µM
Potency [3]: inconclusive [activator, single point]
Potency [4]: inactive

CCN(CCO)CCn1c(Cc2ccccc2)nc2c1c(=O)n(C)c(=O)n2C
Potency [5]: inactive
Potency [6]: inconclusive [falling, partial curve]

CCC(C)Cl (configuration not stated)
Potency [7]: inactive
Potency [8]: inactive

CC(C#N)CCC#N (configuration not stated)
Potency [9]: inactive
Potency [2]: inactive
Potency [5]: inactive

CC(C)NCC(O)c1ccc([N+](=O)[O-])cc1 (configuration not stated)
Potency [4]: inconclusive [cytotoxic, partial curve, poor fit]
Potency [10]: inactive

Cc1cccc([N+](=O)[O-])c1
Potency [11]: inactive

COP(=O)(NC(C)=O)SC (configuration not stated)
Potency [12]: active: 68.7 µM
Potency [13]: inconclusive [cytotoxic, single point]

Brc1c(Br)c(Br)c(Oc2c(Br)c(Br)c(Br)c(Br)c2Br)c(Br)c1Br
activity change, negative = inhibition [6]: inactive: 0.486% [at 19 µM]

CCC(=O)c1ccccc1
Potency [14]: inactive

N#Cc1ccccc1Cl
Potency [15]: inconclusive [falling, partial curve, poor fit]
Potency [16]: inactive
Potency [8]: inactive

O=[N+]([O-])c1ccc(Cl)cc1
Potency [17]: inactive
Potency [12]: inconclusive [cytotoxic, single point]
Potency [13]: inconclusive [cytotoxic, single point]

O=C(Nc1ccc(F)cc1F)c1cccnc1Oc1cccc(C(F)(F)F)c1
Potency [3]: inconclusive [activator, full curve, poor fit]

Brc1c(Br)c(Br)c(Br)c(Br)c1Br
activity change [16]: inactive: 4.52% [at 6.97 µM, active compounds read high]

CCC1(c2ccccc2)CCC(=O)NC1=O (configuration not stated)
Potency [16]: inactive
